Results: paper PMC4336329 (PLoS ONE, 2015)
The whole screen tested about 310,000 compounds, of which about 2,200 (0.71%) showed an effect of 50% or more. The effect is printed as a negative number. Some of the results follow.

Each molecule was assayed against human ether-à-go-go-related gene (hERG) potassium channel (human, UniProt Q12809) (assay: primary screen, population patch clamp on CHO cells stably expressing hERG).
Chain of human ether-à-go-go-related gene (hERG) potassium channel (Q12809 whole entry, looked up): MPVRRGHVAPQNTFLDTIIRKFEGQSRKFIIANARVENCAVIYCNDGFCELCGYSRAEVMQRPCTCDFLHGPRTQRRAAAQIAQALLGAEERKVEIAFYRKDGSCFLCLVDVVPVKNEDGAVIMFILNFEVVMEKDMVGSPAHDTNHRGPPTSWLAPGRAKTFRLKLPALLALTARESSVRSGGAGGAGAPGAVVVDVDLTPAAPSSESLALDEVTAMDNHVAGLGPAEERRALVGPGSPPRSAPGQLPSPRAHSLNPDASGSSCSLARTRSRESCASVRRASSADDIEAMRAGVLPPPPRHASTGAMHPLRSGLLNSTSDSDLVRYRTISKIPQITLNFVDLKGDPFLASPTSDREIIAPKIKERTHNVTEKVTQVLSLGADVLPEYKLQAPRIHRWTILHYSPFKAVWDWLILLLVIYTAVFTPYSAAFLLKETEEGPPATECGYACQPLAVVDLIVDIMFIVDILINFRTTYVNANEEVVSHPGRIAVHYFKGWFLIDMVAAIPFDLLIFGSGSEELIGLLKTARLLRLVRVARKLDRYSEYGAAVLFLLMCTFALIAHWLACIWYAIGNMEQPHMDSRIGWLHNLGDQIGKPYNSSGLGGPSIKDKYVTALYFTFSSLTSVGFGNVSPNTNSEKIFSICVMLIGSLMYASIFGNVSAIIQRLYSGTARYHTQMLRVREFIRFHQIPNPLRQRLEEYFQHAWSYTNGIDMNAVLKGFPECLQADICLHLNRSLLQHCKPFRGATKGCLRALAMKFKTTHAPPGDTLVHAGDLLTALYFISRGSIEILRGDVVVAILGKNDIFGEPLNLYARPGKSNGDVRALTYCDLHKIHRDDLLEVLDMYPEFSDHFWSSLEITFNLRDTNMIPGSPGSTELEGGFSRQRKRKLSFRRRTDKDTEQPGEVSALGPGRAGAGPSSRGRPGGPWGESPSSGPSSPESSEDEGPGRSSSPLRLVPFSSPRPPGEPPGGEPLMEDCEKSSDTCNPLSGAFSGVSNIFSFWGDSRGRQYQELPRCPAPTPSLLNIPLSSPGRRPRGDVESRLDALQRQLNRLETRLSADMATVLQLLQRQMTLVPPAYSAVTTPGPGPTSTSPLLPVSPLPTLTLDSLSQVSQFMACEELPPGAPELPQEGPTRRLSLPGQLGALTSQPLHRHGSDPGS

Compound	hERG current change (%, negative = inhibition) at 1uM [%]
O=C(CCSc1ccc(Cl)c(Cl)c1)NC12CC3CC(CC(C3)C1)C2	9.66
CCc1cc(C(=O)N(C)CC(=O)Nc2c(Cl)cccc2Cl)sc1C	9.86
Cc1cc(C)cc(NC(=O)C2C3C=CC4(O3)C2C(=O)N(CCCN(C)C)C4C(=O)NC2CCCC(C)C2C)c1 (stereo not drawn)	15.2
Cc1ccc(S(=O)(=O)N2CC=C(c3ccc(F)cc3)CC2)cc1	-5.65
Cc1ccc2c(CN3CCCCC3)cc(=O)oc2c1C	-1.56
COc1ccc2c(c1)CC[C@@H]1[C@@H]2CC[C@]2(C)[C@@H](C(C)=O)C[C@@H]12	5.61
O=C(O)c1ccc(N(Cc2ccccc2)S(=O)(=O)c2ccccc2)cc1	7.52
COc1ccc2nc(N3CCCC(O)C3)c(C#N)cc2c1 (stereo not drawn)	7.22
COc1ccc(C2=CC(=O)CC(C)(C)C2)cc1OC	3.16
NC(=O)NCc1ccc(C(=O)OCc2ccncc2)cc1	9.01
COc1ccc2oc(C(=O)OCC(=O)Nc3ccccc3)c(C)c2c1	8
COc1cccc(N2CCN(c3nc(C)cc(C)c3C#N)CC2)c1	10.4
Cc1ccc(S(=O)(=O)Cn2nnnc2CN2CCOCC2)cc1	12.3
Cc1cc(C#N)c(C)c(SCc2[nH]nc3c2C(c2ccccc2)C(C#N)=C(N)O3)n1 (stereo not drawn)	6.23
CCNc1nc(Oc2ccc(=O)[nH]n2)nc(SC)n1	5.38
COc1ccc(OC)c(S(=O)(=O)Nc2cccc(C(C)=O)c2)c1	7.6
O=C(O)CC(c1ccc(Cl)cc1)N1C(=O)CCC1=O (stereo not drawn)	2.56
Cc1ccc(C(=O)NC(=S)Nc2ccccc2C(F)(F)F)cc1	11.6
O=c1c2ccccc2ncn1-c1ccc(Cl)c(Cl)c1	6.33

Compound	hERG current change (%, negative = inhibition) at 1uM [%]
COc1ccc(OC)c(N(CC(=O)NC2CC2)S(=O)(=O)c2ccc(C)cc2)c1	9.31
CCC1C(O)=C(c2ccccn2)C(=N)N1c1ccccc1 (stereo not drawn)	7.84
COC(=O)c1cc(S(=O)(=O)NCC2CCN(Cc3ccccc3F)CC2)c[nH]1	5.39
COc1cccc(-c2coc3cc4oc(=O)c(CCC(=O)O)c(C)c4cc23)c1	6.77
CN(C(=O)CSc1nnc(Cc2cccc3ccccc23)n1N)C1CCS(=O)(=O)C1 (stereo not drawn)	16
CC1=C(C(=O)OC(C)C)C(c2cccs2)N2C(=O)C(C)SC2=N1 (stereo not drawn)	16.1
CCOC(=O)c1c(S(=O)(=O)NCC(=O)Nc2cc(C)ccc2C)c(C)n(C)c1C	10.1
Oc1ccccc1/C=N/n1c(COc2ccccc2)n[nH]c1=S	13.7
C=CCSc1nnc2c(n1)OC=Nc1ccc(Br)cc1-2	1.61
CCC1(C(=O)OC)NC(c2cccc(F)c2)C2C(=O)N(C)C(=O)C21 (stereo not drawn)	22.6
CCCCn1c(N)c(N(CCOC)C(=O)c2cc3c(s2)CCC3)c(=O)[nH]c1=O	4.48
CCC(=O)N1c2ccccc2NC2=C(C(=O)CCC2)C1c1ccco1 (stereo not drawn)	13.5
Cn1nc(C(F)(F)F)c(/C=N/OC(=O)c2ccccc2)c1SCc1ccccc1Cl	7.7
Cc1ccc(-n2nc(C)c(NS(=O)(=O)c3ccccc3)c2C)cc1C	-9.54
O=C(Nc1ccccc1)C1CCCN(C(=O)c2ccc(Cl)cc2)C1 (stereo not drawn)	-6.09
O=C1CCC(C(=O)OCC(=O)c2ccccc2)N1 (stereo not drawn)	8.09
O=C(NC(C(=O)c1ccccc1)n1ccc(=O)[nH]c1=O)c1ccccc1 (stereo not drawn)	6.41
CC(NC(=O)CCNC(=O)c1ccccc1Cl)C1CC2CCC1C2 (stereo not drawn)	-13.8
Cc1ccccc1NC(=S)Nc1ccc2cn[nH]c2c1	9.24

Compound	hERG current change (%, negative = inhibition) at 1uM [%]
Cc1cc(C)n2nc(SCC(=O)c3ccccc3)nc2n1	5.55
Cc1ccsc1/C=N/Nc1ccc(F)cc1F	12.9
CC(CC(=O)O)n1nnc2ccccc21 (stereo not drawn)	10.2
CC(=NCc1cccnc1)C1=C(O)c2ccccc2C1=O	8.39
CC(C)CN(C(=O)COC(=O)CN1C(=O)c2ccccc2C1=O)c1c(N)n(Cc2ccccc2)c(=O)[nH]c1=O	13.4
O=C(Cc1ccc(O)cc1)NCCNC(=S)NCc1ccccc1	12.2
CCOc1ccc(CCNC(=O)Cn2ccc3ccccc3c2=O)cc1OCC	8.42
Cc1onc(-c2ccccc2)c1NC(=O)N(CCC#N)Cc1ccccc1	15.5
COc1cccc(CN2CCN(c3nc4nonc4nc3NC3CC3)CC2)c1	8.73
CC(C)c1ccc(S(=O)(=O)N2CCCCC2)cc1	-0.783
O=C(COC(=O)C1CCCCC1)Nc1ccc(S(=O)(=O)N2CCOCC2)cc1	4.75
O=C(NNC1CC(=O)N(c2ccc(Br)cc2)C1=O)c1cccs1 (stereo not drawn)	14.7
O=C(COC(=O)c1ccc2ccccc2n1)c1ccc(F)cc1	-5.55
CCC(=O)NC1=C(Nc2ccc(N)cc2)C(=O)c2ccccc2C1=O	11.4
COc1ccc(CNCC(O)(c2ccc(F)cc2)c2ccc(F)cc2)cc1	-21.9
CC(Nc1nc(-c2ccc(Cl)cc2)cs1)c1nc2cc(Cl)c(N3CCCCC3)cc2n1CCOCCO (stereo not drawn)	13.8
CCc1nn2c(N(C)CCO)cc(C)nc2c1-c1ccc(F)cc1	3.36
CCOC(=O)c1[nH]cnc1C(=O)Nc1ccccn1	-1.69
CN(C)/N=C/c1ccc(P(c2ccc(/C=N/N(C)C)o2)c2ccc(/C=N/N(C)C)o2)o1	14.2
